# Out of some 310,000 compounds screened, about 14,000 (4.5%) showed an effect of 50% or more. Effects have a minus sign here. Some of the results follow.
# Target: human ether-à-go-go-related gene (hERG) potassium channel (human, UniProt Q12809)
# Assay: primary screen, population patch clamp on CHO cells stably expressing hERG
# 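Also: peak tail current of the secondary pulse compared with the same well before compound.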
# Chain of human ether-à-go-go-related gene (hERG) potassium channel (Q12809 whole entry, looked up): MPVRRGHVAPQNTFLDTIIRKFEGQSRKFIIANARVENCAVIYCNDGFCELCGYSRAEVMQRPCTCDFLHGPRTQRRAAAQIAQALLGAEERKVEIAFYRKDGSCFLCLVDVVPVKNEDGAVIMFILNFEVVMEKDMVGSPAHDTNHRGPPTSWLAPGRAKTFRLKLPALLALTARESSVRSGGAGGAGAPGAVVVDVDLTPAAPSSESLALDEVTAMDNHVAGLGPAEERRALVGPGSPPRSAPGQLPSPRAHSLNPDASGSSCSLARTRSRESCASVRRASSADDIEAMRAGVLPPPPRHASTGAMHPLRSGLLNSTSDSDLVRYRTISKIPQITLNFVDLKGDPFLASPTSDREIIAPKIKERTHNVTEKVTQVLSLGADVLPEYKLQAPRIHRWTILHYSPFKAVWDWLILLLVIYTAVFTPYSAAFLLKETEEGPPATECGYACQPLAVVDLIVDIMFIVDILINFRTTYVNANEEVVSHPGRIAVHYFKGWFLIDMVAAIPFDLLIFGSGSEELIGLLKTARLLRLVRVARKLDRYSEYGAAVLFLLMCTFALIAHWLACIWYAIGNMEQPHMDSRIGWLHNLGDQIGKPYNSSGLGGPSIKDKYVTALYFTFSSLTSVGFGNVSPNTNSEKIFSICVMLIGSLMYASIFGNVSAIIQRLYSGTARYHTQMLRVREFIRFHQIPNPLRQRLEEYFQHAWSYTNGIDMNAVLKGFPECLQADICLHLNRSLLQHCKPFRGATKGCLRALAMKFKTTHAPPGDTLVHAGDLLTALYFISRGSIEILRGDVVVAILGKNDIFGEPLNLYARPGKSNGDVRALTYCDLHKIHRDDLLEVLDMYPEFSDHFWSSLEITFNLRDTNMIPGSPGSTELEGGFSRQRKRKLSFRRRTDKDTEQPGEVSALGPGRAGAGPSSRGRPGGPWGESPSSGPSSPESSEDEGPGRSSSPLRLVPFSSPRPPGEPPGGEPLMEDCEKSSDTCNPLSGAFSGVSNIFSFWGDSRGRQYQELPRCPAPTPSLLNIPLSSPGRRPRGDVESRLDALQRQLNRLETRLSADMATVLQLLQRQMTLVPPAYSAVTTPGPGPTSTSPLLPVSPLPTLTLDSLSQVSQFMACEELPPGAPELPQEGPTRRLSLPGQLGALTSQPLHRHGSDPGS
row,SMILES,"hERG current change (%, negative = inhibition) at 10uM [%]"
1,Cc1cc(Cl)c(OCCCCN2CCOCC2)c(Br)c1,-30.2
2,O=C(CSc1nnc(-c2cccs2)n1-c1ccccc1)NCc1ccc2c(c1)OCO2,-43.7
3,Cc1ccccc1C(=O)N/N=C/c1cccc2ccccc12,14.6
4,COc1cc(Br)c(C2C(C#N)=C(N)Oc3n[nH]c(-c4cccnc4)c32)cc1OC (centres unmarked),6.8
5,COc1cccc(CNC(=O)C23CN(Cc4ccccc4)CC2C(c2ccc([N+](=O)[O-])cc2)=NO3)c1 (centres unmarked),-52.1
6,Cc1oc(-c2ccccc2)cc1C(=O)Nc1ccc(N(C)C)cc1,10.3
7,Cc1cc(C)n(-c2ccc(C(=O)OCC(=O)Nc3cc(S(C)(=O)=O)ccc3Cl)cc2)n1,-24.9
8,O=c1c2sccc2[nH]c(=S)n1Cc1ccccc1,14.7
9,O=C(c1cc2cc([N+](=O)[O-])ccc2s1)N1CCOCC1,-23.2
10,CCCc1cc(=O)oc2cc(OCC(=O)N(C)C)c(Cl)cc12,8.47
11,COc1ccc(Br)cc1C(=O)Nc1cccc2ncccc12,7.28
12,CCN1CCN(C(c2cccs2)C(C)NS(=O)(=O)c2ccc(C)cc2)CC1 (centres unmarked),-20
13,COC(=O)c1cn(NC(=O)/C=C/c2ccc(OC)c(OC)c2)c(=O)c2ccccc12,-2.43
14,CCOC(=O)c1c(-c2cccs2)csc1NC(=O)c1ccco1,11.5
15,CC1CN=C(NCc2ccccc2Cl)S1 (centres unmarked),-2.16
16,CCN1C(=O)[C@H]2[C@@H](c3ccc(-c4ccc(C(C)=O)cc4)c(OC)c3)N[C@@](Cc3ccccc3)(C(=O)OC)[C@H]2C1=O.O=C(O)C(F)(F)F,15.7
17,Cc1cc(F)ccc1S(=O)(=O)N1CCCOC1CNC(=O)C(=O)NCCc1c[nH]c2ccccc12 (centres unmarked),1.18
18,N#C/C(=C\c1ccc([N+](=O)[O-])o1)c1nc2ccccc2[nH]1,15.6
19,COC(=O)[C@@H]1C[C@@H]2CC[C@@H](O)C[C@@H]2N1Cc1ccc(Cl)cc1,23.7
20,O=C(CC1C(=O)NCCN1Cc1ccc(-c2ccccc2)cc1)NCc1ccncc1 (centres unmarked),-25.3
21,Cc1ccccc1COCCN1CCN(S(=O)(=O)c2ccccc2)CCC1=O,3.99
22,O=C(CCN1C(=O)/C(=C/c2ccccc2F)SC1=S)N[C@@H](CO)Cc1ccccc1,5.27

row,SMILES,"hERG current change (%, negative = inhibition) at 10uM [%]"
1,CCC(C)(C)NC(=O)C(c1cccs1)N(CC1CCCO1)C(=O)Cn1nnc2ccccc21 (centres unmarked),8.27
2,Cc1ccc(C(=O)CSc2nnc3n2CCCCC3)s1,-1.92
3,CC(CC(=O)N(CCC1=CCCCC1)c1c(N)n(Cc2ccccc2)c(=O)[nH]c1=O)c1ccccc1 (centres unmarked),17.1
4,O=C1Nc2ccccc2N(O)N1c1ccc(Cl)c(Cl)c1,30.8
5,O=C(NCCN1C(=O)S/C(=C\c2ccccc2F)C1=O)C1CC(=O)N(Cc2ccccc2)C1 (centres unmarked),-23.4
6,Cc1c(C#N)c(=O)c(-[n+]2ccccc2)c([S-])n1-c1ccc(Cl)cc1,9.46
7,CC1CCN(C(=O)CNC(=O)Cc2ccccc2)CC1,9.53
8,O=C(C1CCCN(S(=O)(=O)c2cccc3nsnc23)C1)N1CCCCCC1 (centres unmarked),-16.8
9,COCCCNC(=O)CN1C(=O)/C(=C/c2ccccc2C)Sc2ccccc21,4.48
10,CCc1nnc(NC(=O)CCC(=O)N2CCN(C3CCCCC3)CC2)s1,-7.35
11,COc1ccc(OC)c(NC2=C(Cl)C(=O)N(Cc3ccccc3)C2=O)c1,5.06
12,Cc1csc(C(=O)O)c1NC(=O)c1cccc([N+](=O)[O-])c1,15.9
13,Cc1nc2cc(NC(=O)NCc3ccco3)ccc2n1C,0.499
14,COc1ccc(NC(C)=O)c(C)c1,18.2
15,CC(C)Cn1c(N)c(C(=O)COC(=O)C2CCCCC2)c(=O)n(C)c1=O,-48.7
16,O=C(COc1ccc(-c2ccccc2)cc1)NN=C1CCCC1,-12
17,CCC(=O)N1CCc2cc(S(=O)(=O)NCCC(=O)NCc3ccc(F)cc3)ccc21,-5.55
18,NC(=O)CC(NC(=O)Cc1ccc(Cl)cc1)c1ccc(NC2CCCCCC2)c([N+](=O)[O-])c1 (centres unmarked),15.6
19,COc1ccc(C(=O)N2CCC(C(=O)NCc3ccccn3)CC2)cc1,-16.2
20,O=C(O)C1CCCN1C(=O)C12CC3CC(CC(C3)C1)C2 (centres unmarked),11.4
21,COc1ccc(CN(CC(=O)NCCC(C)C)C(=O)CCC(=O)Nc2nccs2)cc1,4.66
22,CCOc1ccc2nc(NC(=O)COc3ccc(N(C)S(=O)(=O)c4ccc(C)cc4)cc3)sc2c1,20.5

row,SMILES,"hERG current change (%, negative = inhibition) at 10uM [%]"
1,O=C(Nc1cccc2c1CCCC2)C1CCCN(S(=O)(=O)c2cccc3nonc23)C1 (centres unmarked),-1.23
2,O=C(Oc1ccc(Oc2ccccc2)cc1)N1CCC(O)CC1,2.31
3,Cl.FC(F)(F)Oc1ccc(Nc2nc(N3CCOCC3)nc(N3CCOCC3)n2)cc1,-13.7
4,CC(C)C(NC(=O)CCNC(=O)c1ccc(C(C)(C)C)cc1)c1nc2ccccc2[nH]1 (centres unmarked),4.54
5,Nc1c(Sc2ccccc2)c(=O)[nH]c(=O)n1Cc1ccccc1,-34.8
6,CC1CC(C)CN(C(=O)CCNC(=O)Cn2cnc3ccccc3c2=O)C1 (centres unmarked),10.1
7,COc1ccc2c(Cl)c(-c3nnc(SCC(N)=O)n3C)sc2c1,10.3
8,O=C(NCc1ccco1)c1cccc(S(=O)(=O)N2CCOCC2)c1,-4.97
9,O=C(Nc1cnc2ccccn2c1=O)c1ccc(Cl)cc1Cl,3.88
10,CC(C)(C)CC(=O)N[C@@H](Cc1ccccc1)c1nc2ccccc2[nH]1,8.12
11,N=C1C(=O)OCC1c1ccccc1NC(=O)CN1CCOCC1 (centres unmarked),13.4
12,Cc1nn(C)c(C)c1S(=O)(=O)N1CCC(C(=O)NCCC2=CCCCC2)CC1,-8.57
13,CN(C)CCNC(=O)Nc1cccc(Cl)c1Cl,-4.25
14,COc1ccc(Cn2nnc(C(=O)Nc3ccc(F)cc3)c2N)cc1,-9.42
15,COCCn1c(SCC(=O)Nc2cc(C)on2)nc2cc(Cl)ccc2c1=O,-3.47
16,O=C(O)c1cc(-c2ccccc2)n(-c2ccc(F)cc2)n1,27.8
17,COc1cc(-c2nc(C(=O)NC3CCCCC3)cc3c2[nH]c2ccccc23)cc(OC)c1OC,-8.67
18,COC(=O)c1cc(NC(=O)CN2C(=O)CSC2=O)ccc1Cl,-9.64
19,CCCCC(CC)C(=O)NCC(C)NC(=O)C(CC)CCCC (centres unmarked),0.945
20,CC1=Nc2cccc3cccc(c23)N1,2.88
21,Cc1nc2ccc(S(=O)(=O)Nc3cc(-c4nc5cccnc5s4)ccc3C)cc2s1,-15.8
22,O=C(Cc1cnc2ncnn2c1)N1CCc2c([nH]c3ccccc23)C1c1ccccc1F (centres unmarked),-39.8

row,SMILES,"hERG current change (%, negative = inhibition) at 10uM [%]"
1,COc1ccc(-c2cc3c(=O)n(CC(=O)NCCCN4CCC(N5CCCCC5)CC4)ncn3n2)cc1,21.5
2,Cc1ccc2ncnc(Nc3ccc(C)c(C)c3)c2c1,-1.72
3,CCn1cc(C(=O)O)c(=O)c2cc(S(=O)(=O)N(C)C)ccc21,-5.47
4,COCC1CCN(Cc2cn[nH]c2-c2ccc(OC)cc2F)C1 (centres unmarked),-12.5
5,CN(Cc1cn[nH]c1-c1ccc2c(c1)OCO2)C1CCOCC1,12.7
6,Cc1ccc(C(=O)CCC(=O)Nc2ccc(Cl)c(S(=O)(=O)Nc3cccc(Cl)c3)c2)cc1,-12.1
7,CCc1nc2ccc(C)cc2c(C(=O)NC2CCCCC2C)c1C (centres unmarked),-24
8,CCN(CC)S(=O)(=O)c1cccc(C(=O)OCC(=O)C23CC4CC(CC(C4)C2)C3)c1,-0.873
9,CC(=O)Nc1ccc(C(=O)Nc2cccc(S(=O)(=O)N(C)c3ccccc3)c2)cc1,2.08
10,CS(=O)(=O)Cc1cccc(C(=O)NC2CCSc3ccccc32)c1 (centres unmarked),14.2
11,CCN1CCCC1CN(Cc1cc2ccc(C)cc2[nH]c1=O)C(=S)Nc1ccccc1OC (centres unmarked),46.7
12,NC(=O)CN1CCCN(S(=O)(=O)c2ccc(Br)cc2)CC1,-18
13,COc1ccccc1OCC(=O)OCn1c(SC)nnc(C)c1=O,25.1
14,O=C(NCc1nc2ccccc2[nH]1)C1=C[C@@H](C2CCCCC2)C[C@@H](OCCCCO)O1,-3.98
15,O=C(Nc1cc2c3c(c1)CC(=O)N3CCC2)C1CCCCC1,-5.43
16,O=C(NCS(=O)(=O)c1ccccc1)c1ccccc1,-0.415
17,CC(C)(C)n1ncc2c(=O)n(CC(=O)Nc3ccc4c(c3)OCO4)cnc21,7.05
18,CC(=O)N1N=C(c2ccc(C)cc2)OC1c1cccnc1 (centres unmarked),8.57
19,COc1ccc(CC(=O)N2CCc3ccccc3C2)cc1,3.67
20,Nc1ccc(C(=O)Nc2cccc(N)c2)cc1,22.1
